The whole screen tested about 220,000 compounds, of which about 16,000 (7.3%) were called active. Inconclusive results, whose numbers are uncertain, are shown with a selection of clear calls. Calls come from the whole dose curve; as a rule, active = well fitted inhibition curve with a large enough effect (not every such curve was filed as active); inconclusive = small, poorly fitted or top-dose-only effect, or another doubt; inactive = no such curve, though single readings can be large or run the other way. Potencies of inconclusive entries are left out as doubtful fits. Where a structure was tested more than once in an assay, its records may differ in their call.
molecular target: Aldehyde dehydrogenase 1A1 (Homo sapiens) (UniProt P00352); experiment: qHTS Assay for Inhibitors of Aldehyde Dehydrogenase 1 (ALDH1A1); conditions: Purified ALDH1A1, NADH fluorescence, propionaldehyde substrate; series mostly up to 75.3 µM; activity, negative = inhibition: at the top concentration;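 for activity, negative = inhibition: plate controls were no enzyme wells and a reference inhibitor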
Potency is the fitted concentration of half-maximal effect; tags give direction and shape of the fitted curve.

Chain of UniProt P00352 (P00352 whole entry, looked up): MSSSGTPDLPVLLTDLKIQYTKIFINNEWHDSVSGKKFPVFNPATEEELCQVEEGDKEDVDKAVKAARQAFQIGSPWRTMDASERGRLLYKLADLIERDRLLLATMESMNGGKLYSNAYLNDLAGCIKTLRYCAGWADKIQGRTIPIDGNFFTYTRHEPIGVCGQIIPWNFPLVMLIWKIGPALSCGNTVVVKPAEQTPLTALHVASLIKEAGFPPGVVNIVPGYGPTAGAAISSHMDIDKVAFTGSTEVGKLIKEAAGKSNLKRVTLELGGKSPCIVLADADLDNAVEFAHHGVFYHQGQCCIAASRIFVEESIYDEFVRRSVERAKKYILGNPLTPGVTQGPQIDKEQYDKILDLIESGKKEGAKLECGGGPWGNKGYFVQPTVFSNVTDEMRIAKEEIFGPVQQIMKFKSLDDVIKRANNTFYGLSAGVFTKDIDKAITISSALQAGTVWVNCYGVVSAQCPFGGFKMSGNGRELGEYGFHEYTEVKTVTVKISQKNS

SMILES | Potency | activity, negative = inhibition
CNC(=O)COC(=O)c1ccc(-c2nc3ccccc3s2)s1 | inconclusive [inhibitor, partial curve] | 
CN1Cc2c(c(C#N)c(N)n(C)c2=S)CC1(C)C | inconclusive [inhibitor, single point] | 
O=C(c1csc2c1CCCCC2)N1CCC2(CC1)OCCO2 | active: 8.91 µM | 
O=C1NC(=O)N(c2ccccc2)C(=O)/C1=C\c1ccc([N+](=O)[O-])o1 | inconclusive [inhibitor, single point] | 
CCc1ccccc1N1C(=O)NC(=O)/C(=C\c2cc(C)n(C)c2C)C1=O |  | inactive: -11.5%
CC[N+](CC)(CC)CC |  | inactive: -5.95%
CN(C)C1=NP(N(C)C)(N(C)C)=NC(c2ccccc2)=N1 | inconclusive [inhibitor, single point] | 
C1CC[C@H]([C@@]23C[C@H](C[C@H]4CCCN[C@H]42)[C@@H]2CCCCN2C3)NC1 |  | inactive: 5.48%
COc1cc2[nH]c(=O)n(-c3cccc(Cl)c3)c(=O)c2cc1OC | inconclusive [inhibitor, partial curve] | 
CCOCCOC(C)=O | inconclusive [inhibitor, single point] | 
CCC(=O)N1N=C2C3CCN(CC3)C2C1c1ccc(C)cc1 (configuration not stated) | inconclusive [inhibitor, partial curve] | 
COC(=O)c1cc2c(s1)=NC=NP=2(N1CCOCC1)N1CCOCC1 | inconclusive [inhibitor, partial curve] | 
COc1ccc(/C=C2/C(=O)N(Cc3ccco3)C(=O)N(C(C)C)C2=O)cc1 | active: 3.98 µM | 
CCOC(=O)c1c(/N=C/C2C(=O)NC(=S)NC2=O)sc2c1CCC2 | active: 17.8 µM | 
O=C1NC(=O)C(=Cc2ccccc2OCCOc2ccc([N+](=O)[O-])cc2)C(=O)N1 | active: 14.1 µM | 
CC(N)Cc1c[nH]c2cc3c(cc12)OCCO3 (configuration not stated) | inconclusive [inhibitor, single point] | 
O=C(c1cc2nc(-c3ccccc3)cc(-c3ccccc3)n2n1)N1CCC2(CC1)OCCO2 | inconclusive [inhibitor, partial curve] | 
CCOP(=O)(OCC)C(NC(=O)c1cccc2ccccc12)C(Cl)(Cl)Cl (configuration not stated) | inconclusive [inhibitor, single point] | 
CC(=O)OC[C@H](N)C(=O)c1ccccc1 | inconclusive [inhibitor, single point] | 
O=c1[nH]cc(F)c(=O)[nH]1 | inactive | 
O=C(c1cc(S(=O)(=O)N2CCCCC2)ccc1F)N1CCC2(CC1)OCCO2 | inconclusive [inhibitor, single point] | 
COc1ccc2c(c1OC)C(=O)OC2c1c(O)n(C2CCCCC2)c(=O)[nH]c1=O (configuration not stated) | inconclusive [inhibitor, partial curve] | 
CC(=O)Oc1c(C)cccc1C(=O)O | inconclusive [inhibitor, partial curve] | 
CCOc1ccc(Cc2c(O)[nH]c(=O)[nH]c2=O)cc1 | inconclusive [inhibitor, single point] | 
c1ccc(Cc2nn3c(Cn4cnc5ccccc54)nnc3s2)cc1 | active: 2.24 µM | 
COc1ccc(OC)c(-n2c(O)c(C=NCc3ccc4c(c3)OCO4)c(=O)[nH]c2=O)c1 | inconclusive [inhibitor, single point] | 

SMILES | Potency | activity, negative = inhibition
CCN1CCN(P2(=O)C=C(c3ccccc3)OC(c3ccccc3)=C2)CC1 | active: 14.1 µM | 
O=C(C1CCN(S(=O)(=O)N2CCOCC2)CC1)N1CCC2(CC1)OCCO2 | inconclusive [inhibitor, partial curve] | 
Oc1c(Cl)c(Cl)c(Cl)c(Cl)c1Cl | active: 17.8 µM | 
CCN(CC)c1ccc(N=Cc2c(O)n(Cc3ccccc3)c(=O)[nH]c2=O)cc1 | inconclusive [inhibitor, full curve] | 
Nc1c(C(=O)NCc2ccco2)c2nc3ccccc3nc2n1Cc1ccc(F)cc1 | inconclusive [inhibitor, partial curve] | 
CNC(=O)Oc1ccc(-c2cn3cc(C)ccc3n2)cc1 | inconclusive [inhibitor, partial curve] | 
COc1ccc2c(c1)[nH]c1c(C)nccc12 | active: 5.62 µM | 
CCCCn1c(N)c(C(=O)NCc2cccs2)c2nc3ccccc3nc21 | inconclusive [inhibitor, partial curve] | 
COc1ccc(OC)c(N2C(=O)NC(=O)/C(=C\c3ccc([N+](=O)[O-])s3)C2=O)c1 | active: 25.1 µM | 
COc1cc(C(C#N)N2CCOCC2)ccc1O (configuration not stated) | active: 14.1 µM | 
Ic1ccccc1CNC1C2CCN(CC2)C1C(c1ccccc1)c1ccccc1 (configuration not stated) |  | inactive: 6.2%
COc1ccc(CCNCc2ccc(OC)c(OC)c2OC)cc1 | inconclusive [inhibitor, single point] | 
COCCCNC(=O)c1c(NC(=O)c2ccco2)n(Cc2ccccc2)c2nc3ccccc3nc12 | inconclusive [inhibitor, partial curve] | 
O=C1NC(=O)N(CCc2ccc(F)cc2)C(=O)/C1=C/c1cccs1 | active: 1.41 µM | 
O=C(C1CC(=O)N(C2CCCCCCC2)C1)N1CCC2(CC1)OCCO2 (configuration not stated) | active: 25.1 µM | 
Cc1ccc(C2SCC(=O)Nc3c2c(=O)[nH]n3C2CCOC(C)(C)C2)cc1 (configuration not stated) |  | inactive: 5.38%
COc1cc(/C=C2\C(=O)NC(=O)N(c3ccc(C)cc3)C2=O)cc(OC)c1O | inconclusive [inhibitor, single point] | 
COC(=O)Cc1cnc(NC(=O)C2C3CCC(C3)C2C(=O)O)s1 (configuration not stated) | inconclusive [inhibitor, single point] | 
CC1(C)N([O-])[N+](=O)C1(C)Br (configuration not stated) | active: 11.2 µM | 
CN=C=S | inconclusive [inhibitor, single point] | 
CN(CCOc1ccc(C=C2C(=O)NC(=O)NC2=O)cc1)c1ccccn1 | inconclusive [inhibitor, single point] | 
COC(=O)c1sc2nc(SCc3cccc(F)c3)n(N)c(=O)c2c1C | inconclusive [inhibitor, single point] | 
CCCN(CCC)CCc1ccc(O)c(O)c1 | inactive | 
O=c1[nH]c(=O)n(Cc2ccc(F)cc2)c(O)c1C=NCCCN1CCOCC1 |  | inactive: 3.25%
Cc1nc2cnc(N3CCNCC3)nc2n(C)c1=O | inconclusive [inhibitor, partial curve] | 
c1cnc(N2CC3(CCNCC3)C2)nc1 | inconclusive [inhibitor, single point] | 

SMILES | Potency | activity, negative = inhibition
O=c1[nH]c(=O)n(CCC2=CCCCC2)c(O)c1C=NCc1cccnc1 | active: 25.1 µM | 
O=[N+]([O-])c1ccccc1-c1ccccc1 | inconclusive [inhibitor, partial curve] | 
O=C1NC(=O)C2(Cc3ccccc3N3CCCC32)C(=O)N1c1cccc(Cl)c1 (configuration not stated) | inconclusive [inhibitor, single point] | 
O=C1C2CCCN2C(c2ccc(Cl)cc2)N1c1ccccn1 (configuration not stated) | inconclusive [inhibitor, single point] | 
Cc1cccc(N2C(=O)NC(=O)/C(=C\c3cccn3-c3ccc(Cl)cc3)C2=O)c1 |  | inactive: -2.86%
CN1CCN(Cc2ccc(OC(F)(F)F)cc2)CC1 | inconclusive [inhibitor, single point] | 
COCCOC(=O)c1c(N)n(Cc2ccc(OC)cc2)c2nc3ccccc3nc12 | inconclusive [inhibitor, partial curve] | 
Cc1cccc(-n2c(/C=C/c3ccc([N+](=O)[O-])o3)nc3ccccc3c2=O)c1 | inconclusive [inhibitor, single point] | 
COc1ccccc1CNCc1cc(OC)c(OC)cc1OC | inconclusive [inhibitor, single point] | 
CCOc1ccc2nc(N=Nc3c(O)[nH]c(=S)[nH]c3=O)sc2c1 |  | inactive: -1.7%
CN(CCC(=O)O)C1=Nc2ccc(Cl)cc2C(c2ccccc2)=[N+]([O-])C1 |  | inactive: 6.83% [at 13.5 µM]
Nc1ccc2ccccc2c1 | inconclusive [inhibitor, single point] | 
Cc1ccc(-n2c(C)cc(/C=C3/C(=O)NC(=O)N(Cc4ccco4)C3=O)c2C)cc1 | active: 14.1 µM | 
O=C1NC(=O)N(Cc2ccc(F)cc2)C(=O)/C1=C/c1cccs1 | active: 28.2 µM | 
CCOC(=O)C1CN(C)CCC1=O (configuration not stated) |  | inactive: 3.02%
COc1ccc2c(CN3CC=C(c4ccccc4)CC3)cc(=O)oc2c1 | inconclusive [inhibitor, single point] | 
COc1cccc(N=Nc2c(O)[nH]c(=S)[nH]c2=O)c1 | active: 25.1 µM | 
CC1Cc2c(cnc3c2CN(C)CC3)CO1 (configuration not stated) |  | inactive: -1.7% [at 13.5 µM]
C1CCC(NC2CCCCC2)CC1 | inconclusive [inhibitor, single point] | 
O=C1NS(=O)c2cc([N+](=O)[O-])cc([N+](=O)[O-])c21 (configuration not stated) | active: 22.4 µM | 
Cc1cc(C=C2C(=O)N(C)C(=S)N(C)C2=O)c(C)n1C1CCCC1 | active: 22.4 µM | 
CCNC(C)Cc1cccc(C(F)(F)F)c1 (configuration not stated) |  | inactive: 0.329%
CCN1CCN(Cc2ccccc2C)CC1 |  | inactive: -1.28%
N#Cc1ccc(Cn2cc(C(=O)c3ccco3)c3ccccc32)cc1 |  | inactive: -2.02%
Nc1ncc(P(=S)(N2CCOCC2)N2CCOCC2)s1 |  | inactive: 7.15%

Reference: PubChem BioAssay AID1030 (National Center for Advancing Translational Sciences (NCATS), 2008)
